This is an account of results in ChEMBL document CHEMBL4888484, “Replenishing the malaria drug discovery pipeline: Screening and hit evaluation of the MMV Hit Generation Library 1 (HGL1) against asexual blood stage Plasmodium falciparum ,using a nano luciferase reporter read-out” (2022).

Out of some 150,000 compounds screened, about 540 (0.36%) showed an effect of 50% or more. The list shows a part of the results.

For the experiment, the system named is Plasmodium falciparum. Nature of the experiment: Primary screen in NF54 nanoGlo assay, in single point, at 2uM, 72h; a lower Z score goes with more inhibition. Format: functional, Erythrocyte. Conditions: timepoint 72 hour.
On to `Cc1cc(C(=O)N2CCC[C@H](c3[nH]ncc3-c3ccc(F)cc3)C2)nc(C)n1`, for which the “% Inhibition” value is -5% and the Z score came to 0.89.

For `CN(CCn1cncn1)Cc1ccc(F)c(C#N)c1`, the “% Inhibition” value was -2% and the Z score was found to be 0.29.

In the case of `Cc1ccc(S(=O)(=O)Nc2ccc(N3CCOCC3)nc2)cc1`, the “% Inhibition” value amounted to 2% and the Z score is -0.27.

As for `CN1CCCC1C1CCCN1C(=O)c1nccc2ccccc12` (centres undefined), the “% Inhibition” value is given as 6% and the Z score is -0.81.

On to `Cc1nnc2sc(-c3ccc(NC(=O)c4ccc(-c5ccc(Cl)c(Cl)c5)o4)cc3)nn12`, for which the “% Inhibition” value is recorded as -4% and the Z score turned out to be 0.43.

For `CCCCN(CC(N)=O)C(=O)[C@@H]1CCOc2ccc(Cl)cc21`, the “% Inhibition” value was -3% and the Z score is 0.54.

In the case of `Cc1n[nH]c([C@H](C)Oc2cccc(Cl)c2)n1`, the “% Inhibition” value is on record as 4% and the Z score is on record as -0.64.

Take `O=C(NCc1ccccc1)c1coc(CN(Cc2cccc(Oc3ccccc3)c2)Cc2ccc3c(c2)OCO3)n1`: the “% Inhibition” value is recorded as -19% and the Z score was 1.86.

With `C[C@H]1CN(C(=O)Cc2ccn[nH]2)C(C)(C)CO1`, the “% Inhibition” value was -2% and the Z score is 0.3.

In the case of `COc1ccc(CN2C(=O)N(c3cccc(C(F)(F)F)c3)C(=O)[C@@H]3[C@H]2CCN3C(=O)CCC(=O)O)cc1`, the “% Inhibition” value came to 34% and the Z score is listed as -3.86.

With `Cn1c(N2CCC[C@H](C(=O)NCC3CCN(Cc4cccc(Cl)c4)CC3)C2)cc(=O)n(C)c1=O`, the “% Inhibition” value is listed as -11% and the Z score was 1.84.

With `Nc1ncnc2c1ncn2CCC(=O)N1CCC[C@@]2(CCOC2)C1`, the “% Inhibition” value is -12% and the Z score stood at 1.66.

`CC1CC(NC(=O)NCc2ccc(C3CC3)cc2)CC(C)O1` (centres undefined): the “% Inhibition” value is reported as -6% and the Z score is given as 0.51.

For `CN(C)S(=O)(=O)c1ccc(F)c(NC(=O)NC2CN(C(=O)OC(C)(C)C)C2)c1`, the “% Inhibition” value is recorded as -2% and the Z score worked out at 0.3.

With `O=C(c1cnsn1)N1CCCC[C@@H]1Cc1ccc(O)cc1`, the “% Inhibition” value is reported as -5% and the Z score is reported as 0.97.

With `CCc1ncc(CN(C)CCCC2CCCC2)cn1`, the “% Inhibition” value is reported as -2% and the Z score was found to be 0.26.

With `Fc1ccc(-c2cnc3n2C[C@H](CNCc2cccnc2)OC3)cc1`, the “% Inhibition” value is on record as -15% and the Z score amounted to 2.32.

As for `Cc1c(-c2cc(-c3cnn(C)c3C)n(-c3ccccc3)n2)cnn1C`, the “% Inhibition” value stood at 29% and the Z score was -3.3.

`O=C(Nc1ccc(C(=O)N2CCC2)cc1)c1ccccc1`: the “% Inhibition” value is recorded as -4% and the Z score turned out to be 0.43.

`Cc1cc2c(NC3CCC(Oc4cnccn4)CC3)nccn2n1` (centres undefined): the “% Inhibition” value came out at 6% and the Z score is listed as -0.58.

As to `COCCNc1c(-c2ccccc2)nc2sc(C(=O)NCc3cccnc3)c(C)n12`, the “% Inhibition” value was -31% and the Z score is 3.13.

`COCc1cc(C(=O)NCC2(c3c(F)cccc3F)CCC2)no1`: the “% Inhibition” value came to 13% and the Z score is reported as -1.28.

With `Cc1sc(NC(=O)CN2C[C@@H](O)C[C@H]2CO)c(C)c1C`, the “% Inhibition” value is listed as -3% and the Z score is listed as 0.3.

Turning to `Cc1cc(S(=O)(=O)Nc2ncn(-c3ccccc3)n2)c(C)o1`, the “% Inhibition” value is on record as -6% and the Z score is given as 0.64.

Regarding `COc1ccnc(N2CCN(c3cc(C)nc(C4CC4)n3)CC2)c1`, the “% Inhibition” value was -10% and the Z score was found to be 0.92.

Take `CC(C)(C)C1=CCN(CCNC(=O)[C@H]2CCc3cn[nH]c3C2)CC1`: the “% Inhibition” value is listed as -7% and the Z score was determined as 1.35.

For `O=C(NC1CC1)[C@@H]1CCCN1c1noc(-c2ccccc2)n1`, the “% Inhibition” value is 4% and the Z score was -0.52.

Take `CCOC(=O)N1CCC(NC(C)C(O)c2c(F)cccc2F)CC1` (centres undefined): the “% Inhibition” value is recorded as 6% and the Z score is reported as -0.65.

As for `O=C(O)CN(Cc1ccco1)c1cccc(Cl)c1`, the “% Inhibition” value came out at 4% and the Z score is -0.54.

As to `O=C(Nc1ccc(-n2cnnn2)cc1)c1ccc(OCc2nc(C3CC3)cs2)cc1`, the “% Inhibition” value was -12% and the Z score is recorded as 2.22.

Turning to `O=C(CCC1CCN(C(=O)[C@@H]2CC=CCC2)CC1)Nc1ccc2c(c1)OCCO2`, the “% Inhibition” value is given as -7% and the Z score is given as 0.89.

For `O=C(CC1CCCC1)N1CCC[C@H](CN2CCCC2)CC1`, the “% Inhibition” value was 0% and the Z score came out at 0.04.

Turning to `c1ccc(-c2noc(CCCc3c[nH]c4ccccc34)n2)cc1`, the “% Inhibition” value is -11% and the Z score amounted to 1.42.

Take `Cc1[nH]c(=O)c(C#N)c(C)c1CCC(=O)N1CCN(Cc2csc(-c3ccco3)n2)CC1`: the “% Inhibition” value is reported as -3% and the Z score stood at 0.48.

As to `COC1CCCC(C(=O)N2CCN(Cc3c(-c4ccc(Cl)cc4)nc4ccc(-c5ccc(Cl)cc5C)cn34)CC2)C1` (centres undefined), the “% Inhibition” value was 6% and the Z score was -0.5.

For the molecule `O=S(=O)(Cc1nnc(C2CC2)o1)c1ccc(Br)cc1`, the “% Inhibition” value is listed as -17% and the Z score was found to be 2.57.

With `Cc1cc(-c2cc(S(=O)(=O)N[C@@H](C)c3ccc4c(c3)OCCO4)c(C)s2)[nH]n1`, the “% Inhibition” value is recorded as -17% and the Z score came out at 1.73.

With `Cn1cc(-c2nc([C@H]3CCOC3)no2)c2ccccc21`, the “% Inhibition” value is reported as -3% and the Z score stood at 0.5.

Regarding `Cc1noc(C)c1NC(=O)NC[C@H]1CCN(Cc2ccccc2F)C1`, the “% Inhibition” value is on record as -18% and the Z score was determined as 1.75.

Turning to `NC(=O)c1cc(Cl)ccc1OCC(=O)c1ccc2c(c1)-c1ccccc1C2`, the “% Inhibition” value turned out to be 1% and the Z score is reported as -0.18.

As for `CCn1c(=O)c(N2CCN(C(=O)Nc3ccc(F)cc3F)CC2)nc2ccccc21`, the “% Inhibition” value was 36% and the Z score is -5.14.

As to `Cc1ccc2ncn(CC(=O)N3CC4(CNC(=O)O4)C3)c2c1`, the “% Inhibition” value was -19% and the Z score was 2.65.
